Source: PubChem BioAssay AID463173 (ICCB-Longwood Screening Facility, Harvard Medical School, 2010)
Screen size: about 52,000 compounds; about 4,300 (8.3%) were called active. Rule as the data show it: active = survival mostly below about 52% (no sharp cut-off); inactive = mostly above about 56%. This is one part of the list.

System: DeltatarO mutant
Experiment: S. aureus survival, RN4220 and DeltatarO strains – OD600, teichoic acid synthesis inhibitors, primary screen (AID 463173)
Details: S. aureus RN4220 wild type/DeltatarO growth, OD600, 18 h, hits give low values, screened at 18.75 µg/mL (by protocol)

| SMILES | survival |
| --- | --- |
| COc1ccc(NC(=O)c2ccc3c(SCC(=O)O)c4c(nc3c2)CCC4)c(OC)c1 | inactive: 68% |
| COc1ccc(-c2nc(C)c(CCNC(=O)C(=O)Nc3cc(C)cc(C)c3)s2)cc1OC | inactive: 80% |
| COc1ccc(-c2nc(SCc3cc(=O)c4cc(C)ccc4[nH]3)n[nH]2)cc1 | inactive: 80% |
| CC1(C)C=Cc2c(nc3ccccc3c2N)C1 | inactive: 65% |
| CC(C)(C)c1nc(CN2CCOCC2)cc(CN2CCOCC2)c1O | inactive: 79% |
| Cc1ccc(C)c(Cn2nc(-c3cc(C)ccc3C)ccc2=O)c1 | inactive: 44% |
| Cc1ccccc1OC(=O)CSc1nnc(-c2cccs2)o1 | inactive: 61% |
| CCOC(=O)c1c(S(=O)(=O)N2CCCC(C(=O)N3CCN(c4ccccc4)CC3)C2)c(C)n(C)c1C (stereo not given) | inactive: 77% |
| CCOc1ccc(S(=O)(=O)NCC(c2ccco2)S(=O)(=O)c2ccc(F)cc2)cc1 (stereo not given) | inactive: 92% |
| COc1cccc(N2CC(NC(=O)c3ccc(S(=O)(=O)N4CCCCC4)cc3)CC2=O)c1 (stereo not given) | inactive: 92% |
| COc1ccc(-c2nc3ccccc3o2)cc1NC(=O)COc1ccc(C(C)(C)C)cc1 | active: 4% |
| O=[N+]([O-])c1ccc(C(c2sc3nc(-c4ccco4)nn3c2O)N2CCN(c3cccc(Cl)c3)CC2)cc1 (stereo not given) | active: 47% |
| CCCCOC(=O)c1cccc(NC(=O)c2cc3ccccc3o2)c1 | active: 1% |
| CCOc1ccc(C(=O)Nc2cccc(OCc3cc(=O)n4cc(C)sc4n3)c2)cc1 | inactive: 79% |
| O=C(Nc1ccc(Cl)cc1F)c1cc(S(=O)(=O)NCc2ccc3c(c2)OCO3)ccc1F | inactive: 77% |
| CCc1ccc2oc(C(=O)Nc3sc4c(c3C(=O)NC)CCCC4)cc(=O)c2c1 | inactive: 55% |
| COc1cccc(CNCCSc2nnnn2C)c1OCc1ccccc1F | inactive: 50% |
| CN(C)CCn1c2c(c(SCC(=O)Nc3ccc(F)cc3F)nc1=O)CCC2 | inactive: 71% |
| O=C(NCCc1ccccc1)c1ccc(CSc2nc3ccncc3n2Cc2ccc(F)cc2)cc1 | inactive: 69% |
| CCCCn1cc(S(=O)(=O)c2cccc(C)c2)c(=O)c2cc(F)c(N3CCOCC3)cc21 | inactive: 83% |
| O=C(CN1C(=O)COc2ccc(S(=O)(=O)N3CCOCC3)cc21)N1CCN(c2ccc(F)cc2)CC1 | inactive: 99% |
| CC(Sc1nc(=O)cc(N)n1CCc1ccccc1)C(=O)Nc1ccccc1C#N (stereo not given) | inactive: 80% |
| COc1ccc(OC)c(NC(=O)CN2C(=O)CCc3cc(S(=O)(=O)N4CCCCC4)ccc32)c1 | active: 32% |
| O=C(NC1CCCCC1)c1ccc2c(c1)N(Cc1ccc(Cl)cc1)C(=O)c1ccccc1S2(=O)=O | inactive: 84% |
| CCc1cccc(NC(=O)Cn2nc(-c3cc(C)ccc3C)ccc2=O)c1 | active: 34% |
| Cc1nnc(NCc2ccccc2)c2c1nnn2Cc1ccc(F)cc1 | inactive: 99% |
| Cc1ccc(CN2C(=O)C3(c4ccccc42)N(c2cccc(C(F)(F)F)c2)C(=O)CS3(=O)=O)cc1 (stereo not given) | inactive: 77% |
| COc1ccccc1NC(=O)CSc1oc(-c2cccs2)nc1S(=O)(=O)c1ccccc1 | inactive: 54% |

| SMILES | survival |
| --- | --- |
| O=c1cc(CSc2n[nH]c(-c3ccccc3)n2)[nH]c2ccccc12 | inactive: 129% |
| CC(Oc1ccccc1Cl)C(=O)N1CCN(CCc2ccccn2)CC1 (stereo not given) | inactive: 108% |
| COc1cc(NC(=O)c2cc3c(=O)n(Cc4cccs4)ccc3nc2C)cc(OC)c1OC | active: 0% |
| CCOC(=O)CN1CCN(c2ccc(F)cc2)CC1 | inactive: 76% |
| CCN1CCN(c2c(S(=O)(=O)c3ccc(C)c(C)c3)cnc3ccc(F)cc23)CC1 | inactive: 67% |
| O=c1c2cnn(-c3ccc(Cl)cc3)c2ncn1Cc1cccc(C(F)(F)F)c1 | inactive: 106% |
| Cc1nn(CC(=O)Nc2ccccc2F)c(=O)c2c(C)n(-c3ccc(Cl)cc3)nc12 | inactive: 102% |
| CCOc1ccc(-c2csc(/C(C#N)=C/c3ccc(Br)cc3)n2)cc1 | inactive: 55% |
| CCOc1ccc(C(NC(=O)c2ccco2)c2ccc(OC)c(OC)c2)cc1 (stereo not given) | inactive: 75% |
| Cc1ccc(-c2ccc(C#N)c(=O)n2CC(=O)N2CCC(C(N)=O)CC2)cc1 | inactive: 88% |
| COc1cccc(N2CCN(C(=O)c3cnn(-c4ccc(C)cc4C)c3C3CCN(C(=O)OC(C)(C)C)CC3)CC2)c1 | inactive: 101% |
| CC(=O)N1c2c(cc(Br)cc2S(=O)(=O)N2CCN(c3cccc(Cl)c3)CC2)CC1C (stereo not given) | inactive: 72% |
| Cc1ccc(Cl)cc1NC(=O)Cn1c(=O)n(Cc2ccc(C(=O)NCc3ccc4c(c3)OCO4)cc2)c(=O)c2ccccc21 | inactive: 90% |
| CCN(Cc1ccccc1)C(=O)c1cc2c(s1)-c1c(C)cccc1OC2 | active: 55% |
| CC(=O)c1cccc(NS(=O)(=O)c2ccc3c(c2)NC(=O)CC(=O)N3)c1 | inactive: 93% |
| CCOC(=O)C1CCCN(C(=O)c2ccc(-n3ccc4ccccc43)s2)C1 (stereo not given) | active: -1% |
| CCS(=O)(=O)c1ncc(N(Cc2ccc(F)cc2)Cc2ccco2)c(C(=O)Nc2cc(C)ccc2C)n1 | inactive: 58% |
| CCOC(=O)C1CCN(C(=O)CN2c3ccc(CC)cc3-c3ccccc3S2(=O)=O)CC1 | inactive: 99% |
| CCC(=O)Nc1ccc2nc(SCCOc3ccc(C)cc3)sc2c1 | inactive: 97% |
| CCCN(CCC)C(=O)Cn1c(=O)n(-c2ccc(OC)cc2)c(=O)c2ccc(C(=O)NCc3ccc(C)cc3)cc21 | inactive: 74% |
| CCCn1c(NCc2ccc(N(CC)CC)cc2)nc2ccccc21 | active: 29% |
| CN(C)CCOC(=O)CC12CC3CC(C1)CC(CC(=O)OCCN(C)C)(C3)C2 | inactive: 95% |
| CN1CCN(c2nc3c(S(=O)(=O)c4ccccc4)nnn3c3ccsc23)CC1 | inactive: 86% |
| Cc1ccc(-n2c(SCC(=O)Nc3cccc(C)c3)nc3c(oc4ccccc43)c2=O)cc1 | inactive: 99% |
| COc1cccc(C(=O)c2cn(CC(=O)NCc3ccccc3Cl)c3nc(C)ccc3c2=O)c1 | inactive: 85% |
| O=C(Nc1cccc(O)c1)c1noc2c1CCc1ccccc1-2 | inactive: 54% |
| CCCOc1cccc(C2c3c(oc4ccccc4c3=O)C(=O)N2c2nncs2)c1 (stereo not given) | inactive: 69% |
